Data as given in PubChem BioAssay AID504845 (National Center for Advancing Translational Sciences (NCATS), 2011).
About 150 (0.038%) of roughly 390,000 compounds were called active. The inconclusive results got no clear call from the source; some entries with a clear call stand among them for comparison. Calls follow the shape of the dose curve; as a rule, active = well fitted inhibition curve with a large enough effect; inconclusive = small, poorly fitted or top-dose-only effect; inactive = no such curve, though single readings can be large or run the other way. Potencies of inconclusive entries are doubtful fits and often do not repeat.
% is scaled to controls: 0 for no effect and ±100 for the full control effect; potency is read from the fitted curve at half-maximal effect; tags tell the direction and shape of the fitted curve.
Also: nearly all actives have a fitted effect of over 75% in size.

Each compound was assayed against Regulator of G-protein signaling 4 (Homo sapiens) (UniProt P49798) (assay: Inhibitors of Regulator of G Protein Signaling (RGS) 4: qHTS). Conditions: Transcreener GDP fluorescence polarization, RGS4-accelerated GTP hydrolysis; series mostly up to 114 µM; activity change, negative = inhibition: at the top concentration.
Chain of UniProt P49798 (P49798 whole entry, looked up): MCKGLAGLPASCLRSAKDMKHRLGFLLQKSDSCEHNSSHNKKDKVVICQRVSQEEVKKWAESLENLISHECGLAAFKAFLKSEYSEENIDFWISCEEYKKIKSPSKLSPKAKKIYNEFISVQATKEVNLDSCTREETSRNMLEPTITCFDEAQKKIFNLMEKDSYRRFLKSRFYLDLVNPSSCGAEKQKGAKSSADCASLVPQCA
Summary of the method: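 MLSMR compounds (23 nl, pin-transferred) preincubated 10 min at room temperature with a 500nM (2x) first reagent, then RGS4 at 900nM (2x) plus Transcreener GDP mix added; fluorescence polarization (620/688 nm) read before and after 90 min at 30 °C.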
In the case of `COc1cc(C)nc(OCCNC(=O)COc2ccc(Cl)cc2C)n1`, the “activity change, negative = inhibition” value is reported as inactive: -11.9%. With `Cc1cccc(C(=O)NC(=S)NNC(=O)c2ccccc2Cl)c1` the Potency was inconclusive: 17.8 µM [inhibitor, full curve, poor fit]. With `O=C(C#Cc1ccccc1)c1ccc([N+](=O)[O-])cc1` the Potency was inconclusive: 100 µM [inhibitor, partial curve, poor fit]. With `O=[N+]([O-])c1ccc(N2CCN(Cc3ccccc3)CC2)c(S(=O)(=O)N2CCOCC2)c1` the Potency was inconclusive: 79.4 µM [inhibitor, single point]. For `O=C(OCC(=O)N(CCc1ccccc1)Cc1ccccc1)c1ccccc1O`, the “activity change, negative = inhibition” value was inactive: -24.3%. For `Cc1ccc(C2C(=O)c3ccccc3C2=O)cc1`, the “activity change, negative = inhibition” value was inactive: 12.7%. In the case of `CC(C)CCN1NC2(CCCC(C)C2)NC1=S` (centres undefined), the Potency is reported as inconclusive: 17.8 µM [inhibitor, full curve, poor fit]. In the case of `O=C(Oc1ccc(C(=S)N2CCOCC2)cc1)c1ccccc1F`, the Potency is reported as inconclusive: 10 µM [inhibitor, full curve, poor fit]. `Cc1nn(-c2ccc(N3CCCC3)nn2)c(C)c1CCC(=O)Nc1ccc(F)c(Cl)c1` was tested, and the “activity change, negative = inhibition” value was inactive: 9.09%. For `Cc1cc(C)c2c(N)c(C(=O)NN)sc2n1`, the activity change, negative = inhibition was inactive: 6.37% [at 11.4 µM]. In the case of `CC(C)Sc1ncc(Cl)c(C(=O)N(Cc2ccc(N(C)C)cc2)C2CCS(=O)(=O)C2)n1` (centres undefined), the “activity change, negative = inhibition” value is reported as inactive: -17.9%. With `CCCCCCCCNCCS(=O)(=O)NN1CCOCC1` the Potency was inconclusive: 31.6 µM [inhibitor, full curve, poor fit]. For `COc1ccc(C(=O)NCCS(=O)(=O)NCc2ccco2)cc1`, the Potency was inconclusive: 44.7 µM [inhibitor, partial curve, poor fit]. `CCN1C(=O)/C(=C/C=C2\C=CN(CC)c3ccccc32)SC1=S` was tested, and the “activity change, negative = inhibition” value was inactive: -25.8%. In the case of `CCc1nnc(NC(=O)c2ccc(NS(=O)(=O)c3ccccc3)cc2)s1`, the Potency is reported as “inactive”. `O=C(Nc1cccc(-c2cn3ccccc3n2)c1)c1cc2ccccc2oc1=O` was tested, and the Potency was inconclusive: 44.7 µM [inhibitor, partial curve, poor fit]. In the case of `C/C=C\C=C/C(=O)Nc1cccc(C2=NOC3(C2)C[C@H](C(N)=O)N(C(=O)Cc2ccc([N+](=O)[O-])cc2)C3)c1` (some centres undefined), the Potency is reported as inconclusive: 79.4 µM [inhibitor, partial curve, poor fit]. In the case of `Cc1cc(SCC(=O)c2ccc3c(c2)OCO3)nc2ccccc12`, the “activity change, negative = inhibition” value is reported as inactive: -23.3%. For `CCC1(c2ccccc2)NC(=O)N(CC(=O)N(CC(=O)Nc2ccccc2C(F)(F)F)Cc2ccco2)C1=O` (centres undefined), the Potency was inconclusive: 79.4 µM [inhibitor, single point]. `COc1cc(OC)c2c(-c3cccc(-c4ccc(OC)c(F)c4)c3)cc(=O)oc2c1` was tested, and the “activity change, negative = inhibition” value was inactive: -14%. In the case of `CC1CCN(c2nc(-c3ccco3)c3c(c2C#N)CC(C)(C)OC3)CC1`, the Potency is reported as inconclusive: 28.2 µM [inhibitor, full curve, poor fit]. For `CC(=O)Nc1ccc(S(=O)(=O)NC2=NCN(c3ccc([N+](=O)[O-])cc3)CN2)cc1`, the Potency was inconclusive: 100 µM [inhibitor, partial curve, poor fit]. With `CCc1ccc(S(=O)(=O)/N=C2\C=C(Nc3cccc(C(=O)O)c3)C(=O)c3ccccc32)cc1` the Potency was inconclusive: 89.1 µM [inhibitor, single point]. In the case of `O=C1C=CC(=O)N1Cc1ccccc1`, the Potency is reported as inconclusive: 50.1 µM [inhibitor, partial curve, poor fit]. In the case of `C[C@@H](C(=O)N=c1sc2ccccc2n1C)N1C(=O)C2CC=CCC2C1=O` (some centres undefined), the “activity change, negative = inhibition” value is reported as inactive: 12.5%. In the case of `Cc1cc(C)cc(N(CCC(=O)Nc2nnc(C)s2)S(=O)(=O)c2ccc(Cl)cc2)c1`, the “activity change, negative = inhibition” value is reported as inactive: -7.78%. `COc1ccc(C(=O)NC(CC(=O)O)c2cc([N+](=O)[O-])ccc2Cl)c(SC)c1` (centres undefined) was tested, and the Potency was inconclusive: 44.7 µM [inhibitor, partial curve, poor fit]. In the case of `CC(C)(C)c1ccc(-c2nc(SCC(=O)Nc3ccc(Cl)cc3)[nH]c(=O)c2C#N)cc1`, the Potency is reported as inconclusive: 70.8 µM [inhibitor, partial curve, poor fit]. In the case of `CC(Sc1nc(N)c2c3c(sc2n1)CSC(C)(C)C3)C(=O)Nc1ccccc1` (centres undefined), the Potency is reported as inconclusive: 31.6 µM [inhibitor, full curve, poor fit]. For `CC1C/C(=C/c2cccn2C)C(=O)/C(=C/c2cccn2C)C1` (centres undefined), the Potency was inconclusive: 56.2 µM [inhibitor, partial curve, poor fit]. With `Cc1ccc(C(=O)Nc2nnc(S(=O)(=O)N3CCc4ccccc43)s2)cc1` the “activity change, negative = inhibition” value was inactive: -20.8%. For `C=CCOc1c(CNc2ccc3[nH]c(=O)[nH]c3c2)cccc1OC`, the Potency was inconclusive: 50.1 µM [inhibitor, partial curve, poor fit]. With `N#Cc1ccc(OCC(=O)NNC(=S)NC(=O)C2CC2)cc1` the Potency was inconclusive: 89.1 µM [inhibitor, single point]. In the case of `CC1=C(C(N)=O)C(c2cccs2)NC(=S)N1` (centres undefined), the Potency is reported as inconclusive: 100 µM [inhibitor, partial curve, poor fit]. With `O=C(Nc1cccnc1)c1cc(-c2cccc(Cl)c2)on1` the Potency was inconclusive: 35.5 µM [inhibitor, full curve, poor fit]. `CCOC(=O)C1(CCOc2ccccc2)CCN(Cc2nccn2CC)CC1` was tested, and the “activity change, negative = inhibition” value was inactive: 4.01%. `CCSc1n[nH]c2nc3c(c(=O)n12)C1(CCCCC1)Cc1ccccc1-3` was tested, and the Potency was inconclusive: 10 µM [inhibitor, full curve, poor fit]. With `CCOC(=O)C1CCN(Cc2ccccc2C(F)(F)F)CC1` the “activity change, negative = inhibition” value was inactive: -11.4%. `CN(CC(=O)Nc1ccc(F)c(F)c1F)C(=O)C1COc2ccccc2O1` (centres undefined) was tested, and the Potency was inconclusive: 89.1 µM [inhibitor, single point]. In the case of `O=C(NCCC1=CCCCC1)C1COc2ccccc2O1` (centres undefined), the Potency is reported as inconclusive: 79.4 µM [inhibitor, single point]. With `CCOc1ccc(C(c2c(O)nc(SC)n(C)c2=O)c2c(O)nc(SC)n(C)c2=O)cc1` the Potency was inconclusive: 79.4 µM [inhibitor, partial curve, poor fit]. With `Nc1ccc(NC(=O)CCN2CCOCC2)cc1` the “activity change, negative = inhibition” value was inactive: 6.01%. For `Cc1cc(C)nc(NN=C(c2ccccc2)c2ccccc2)n1`, the “activity change, negative = inhibition” value was inactive: -14.5%. `O=C(Cn1nnc(-c2ccc3c(c2)OCO3)n1)Nc1ccccc1C(=O)O` was tested, and the “activity change, negative = inhibition” value was inactive: -9.52%. In the case of `Cn1c(CS/C(N)=N/N=C/c2ccccc2)c(Br)c(=O)n1-c1ccccc1`, the Potency is reported as inconclusive: 35.5 µM [inhibitor, partial curve, poor fit]. In the case of `N#C/C(=C\c1ccc(Cl)cc1)c1nc2ccccc2o1`, the Potency is reported as inconclusive: 89.1 µM [inhibitor, single point]. With `Cc1ccccc1CN1CCN(S(=O)(=O)c2ccc(Cl)s2)CC1` the “activity change, negative = inhibition” value was inactive: -32.8%. For `Cn1c(-c2c(N)n(CCCc3ccccc3)c3nc4ccccc4nc23)nc2ccccc21`, the “activity change, negative = inhibition” value was inactive: 4.58%. For `Cc1ccc(NC(=O)C(=O)NC2CCCCC2)cc1`, the “activity change, negative = inhibition” value was inactive: 27.4%. `COc1ccc(CCC(C)NCC(C)c2ccccc2)cc1` (centres undefined) was tested, and the Potency was inconclusive: 100 µM [inhibitor, single point]. In the case of `COC(=O)c1c(C(=O)OC)c(-c2ccc(Cl)cc2)n2c1CS(=O)(=O)C2`, the Potency is reported as inconclusive: 31.6 µM [inhibitor, full curve, poor fit]. For `Cc1ccc(CNC(=O)c2cn(C3CCCCC3)c(=O)c3c2c2ccccc2n3C)o1`, the Potency was inconclusive: 50.1 µM [inhibitor, partial curve, poor fit]. In the case of `O=C1Nc2ccccc2/C1=C\C(=O)c1ccccc1`, the Potency is reported as inconclusive: 31.6 µM [inhibitor, full curve, poor fit]. With `O=C1C(Cl)=C(N2CCC(C(=O)O)CC2)C(=O)c2ccccc21` the “activity change, negative = inhibition” value was inactive: -9.1%. With `C=CCc1cc(Cl)ccc1OCCNCCOC` the “activity change, negative = inhibition” value was inactive: 13.2%. With `CC(=O)N1CCN(C(=O)CCc2nc3ccccc3c(=O)[nH]2)CC1` the “activity change, negative = inhibition” value was inactive: -5.9%. In the case of `COc1ccc(-c2nn(C)c3sc(C(=O)NCCN(C)C)cc23)cc1OC`, the Potency is reported as inconclusive: 79.4 µM [inhibitor, partial curve, poor fit]. With `CN(C)C(=S)NC(=S)Nc1ccc2ccccc2c1` the Potency was inconclusive: 44.7 µM [inhibitor, partial curve, poor fit]. For `O=C(O)C/C(=C\c1cc2c(cc1Br)OCO2)c1nc2ccccc2s1`, the Potency was inconclusive: 44.7 µM [inhibitor, partial curve, poor fit]. With `Cc1ccc(S(=O)(=O)N2CCCCC2)cc1NC(=O)COC(=O)Cc1cccc2ccccc12` the Potency was inconclusive: 17.8 µM [inhibitor, full curve, poor fit]. `Cc1ccc(NC(=O)c2c(NC(=O)CCC(=O)O)sc3c2CCCCC3)cc1` was tested, and the Potency was inconclusive: 28.2 µM [inhibitor, full curve, poor fit]. For `COc1ccccc1-c1cn[nH]c1-c1ccc(OCc2ccc(F)cc2)cc1O`, the “activity change, negative = inhibition” value was inactive: 7.09% [at 56.9 µM]. With `CCN(c1ccccc1C)S(=O)(=O)c1nnc(NC(=O)c2ccc(OC)c(OC)c2)s1` the “activity change, negative = inhibition” value was inactive: 1.18%. For `CCN(CC)S(=O)(=O)c1cccc(NC(=O)CCNC(=O)c2ccc([N+](=O)[O-])cc2)c1`, the “activity change, negative = inhibition” value was inactive: 12.8%. `CCOC(=O)c1c(C)c(C(=O)OCC)n(C)c1C` was tested, and the Potency was inconclusive: 89.1 µM [inhibitor, single point]. In the case of `O=C(/C=C/c1ccc(O)cc1)c1ccc(NC2=C(N3CCCCC3)C(=O)c3ccccc3C2=O)cc1`, the Potency is reported as inconclusive: 35.5 µM [inhibitor, full curve, poor fit]. For `CCN(CCCNC(=O)c1[nH]c(C)c(C(C)=O)c1C)c1ccccc1`, the Potency was inconclusive: 89.1 µM [inhibitor, single point]. For `COc1ccccc1N1CCN(C(=O)Cn2ncc3c2-c2cc(C)ccc2OC3)CC1`, the “activity change, negative = inhibition” value was inactive: 13.8%. `Nc1ccc(-c2ccc(N)c([N+](=O)[O-])c2)cc1[N+](=O)[O-]` was tested, and the “activity change, negative = inhibition” value was inactive: -36.5% [at 56.9 µM].
